Test results published in PMC5896957.
Read-outs that look alike come from different tables or passages of the source. No constants are given. Whether binding was seen depends on the method and setting. In cells and extracts the contact can be indirect. Some entries that bind do so weakly or less than the wild type.

Amino acid sequences for entries named in this document (tags omitted).
UniProt P38919: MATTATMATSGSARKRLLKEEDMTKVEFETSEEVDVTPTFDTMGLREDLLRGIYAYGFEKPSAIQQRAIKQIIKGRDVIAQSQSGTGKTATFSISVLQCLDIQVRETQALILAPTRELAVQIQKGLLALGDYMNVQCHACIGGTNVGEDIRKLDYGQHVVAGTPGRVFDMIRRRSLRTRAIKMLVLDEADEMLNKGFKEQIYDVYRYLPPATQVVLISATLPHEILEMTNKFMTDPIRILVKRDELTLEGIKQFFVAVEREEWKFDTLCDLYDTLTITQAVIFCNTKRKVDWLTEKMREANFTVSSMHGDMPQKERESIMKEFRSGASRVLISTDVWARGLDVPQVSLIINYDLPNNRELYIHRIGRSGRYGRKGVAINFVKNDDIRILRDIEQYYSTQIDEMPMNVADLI
UniProt Q9Y2F5: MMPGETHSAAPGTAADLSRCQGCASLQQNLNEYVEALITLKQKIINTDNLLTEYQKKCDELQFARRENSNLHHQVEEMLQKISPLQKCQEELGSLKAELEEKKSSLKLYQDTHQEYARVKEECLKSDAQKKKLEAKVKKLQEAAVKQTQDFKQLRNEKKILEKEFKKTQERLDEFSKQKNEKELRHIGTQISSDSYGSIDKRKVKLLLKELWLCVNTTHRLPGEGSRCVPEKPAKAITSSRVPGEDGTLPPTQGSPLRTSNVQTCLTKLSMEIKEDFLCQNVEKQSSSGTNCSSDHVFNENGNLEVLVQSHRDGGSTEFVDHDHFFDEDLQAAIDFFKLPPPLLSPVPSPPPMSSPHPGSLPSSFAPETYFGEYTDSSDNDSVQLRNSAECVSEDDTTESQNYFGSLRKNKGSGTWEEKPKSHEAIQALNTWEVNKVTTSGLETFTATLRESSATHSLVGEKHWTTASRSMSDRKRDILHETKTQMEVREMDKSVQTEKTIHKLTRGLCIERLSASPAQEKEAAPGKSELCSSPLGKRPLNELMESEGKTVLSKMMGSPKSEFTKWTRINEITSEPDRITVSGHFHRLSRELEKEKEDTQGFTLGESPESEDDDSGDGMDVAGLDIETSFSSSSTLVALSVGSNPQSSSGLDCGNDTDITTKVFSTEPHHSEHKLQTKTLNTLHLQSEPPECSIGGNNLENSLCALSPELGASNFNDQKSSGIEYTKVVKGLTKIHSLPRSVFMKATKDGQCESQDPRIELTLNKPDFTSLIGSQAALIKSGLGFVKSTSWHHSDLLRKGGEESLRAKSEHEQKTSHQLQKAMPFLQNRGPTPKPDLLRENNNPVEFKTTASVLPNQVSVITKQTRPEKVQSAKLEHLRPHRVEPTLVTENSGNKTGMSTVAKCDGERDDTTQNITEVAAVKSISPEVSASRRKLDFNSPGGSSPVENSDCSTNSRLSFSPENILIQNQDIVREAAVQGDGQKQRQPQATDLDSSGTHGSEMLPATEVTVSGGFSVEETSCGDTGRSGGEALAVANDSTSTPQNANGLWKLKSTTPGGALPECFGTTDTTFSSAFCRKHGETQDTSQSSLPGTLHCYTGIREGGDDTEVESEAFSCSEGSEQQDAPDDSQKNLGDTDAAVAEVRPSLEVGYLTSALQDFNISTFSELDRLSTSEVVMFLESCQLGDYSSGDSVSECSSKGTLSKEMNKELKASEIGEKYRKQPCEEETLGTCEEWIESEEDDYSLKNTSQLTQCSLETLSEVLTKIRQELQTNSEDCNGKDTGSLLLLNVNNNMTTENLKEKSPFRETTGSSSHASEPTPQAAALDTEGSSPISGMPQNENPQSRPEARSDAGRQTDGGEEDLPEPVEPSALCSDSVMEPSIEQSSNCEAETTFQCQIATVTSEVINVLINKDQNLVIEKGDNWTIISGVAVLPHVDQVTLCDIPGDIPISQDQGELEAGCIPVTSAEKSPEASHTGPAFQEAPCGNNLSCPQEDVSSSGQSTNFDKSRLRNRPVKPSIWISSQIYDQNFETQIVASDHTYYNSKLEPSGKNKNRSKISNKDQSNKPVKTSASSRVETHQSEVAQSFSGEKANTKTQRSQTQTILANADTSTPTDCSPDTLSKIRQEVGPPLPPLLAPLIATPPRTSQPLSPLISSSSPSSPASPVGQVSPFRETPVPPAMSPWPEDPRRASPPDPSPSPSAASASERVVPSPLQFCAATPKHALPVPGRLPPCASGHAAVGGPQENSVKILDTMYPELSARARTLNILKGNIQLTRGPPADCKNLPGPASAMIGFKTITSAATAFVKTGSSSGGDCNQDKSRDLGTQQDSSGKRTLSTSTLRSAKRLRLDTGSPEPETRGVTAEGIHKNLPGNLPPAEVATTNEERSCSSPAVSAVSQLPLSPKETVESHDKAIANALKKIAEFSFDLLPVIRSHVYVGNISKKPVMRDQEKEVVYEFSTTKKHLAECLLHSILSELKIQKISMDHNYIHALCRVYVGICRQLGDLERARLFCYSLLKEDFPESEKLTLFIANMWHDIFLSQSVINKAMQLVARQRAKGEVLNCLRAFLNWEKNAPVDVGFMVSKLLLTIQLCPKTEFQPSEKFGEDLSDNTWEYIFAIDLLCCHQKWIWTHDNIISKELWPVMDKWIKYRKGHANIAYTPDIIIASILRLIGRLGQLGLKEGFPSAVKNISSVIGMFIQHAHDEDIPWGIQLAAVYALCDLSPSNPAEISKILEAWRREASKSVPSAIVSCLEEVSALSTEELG
UniProt O15234: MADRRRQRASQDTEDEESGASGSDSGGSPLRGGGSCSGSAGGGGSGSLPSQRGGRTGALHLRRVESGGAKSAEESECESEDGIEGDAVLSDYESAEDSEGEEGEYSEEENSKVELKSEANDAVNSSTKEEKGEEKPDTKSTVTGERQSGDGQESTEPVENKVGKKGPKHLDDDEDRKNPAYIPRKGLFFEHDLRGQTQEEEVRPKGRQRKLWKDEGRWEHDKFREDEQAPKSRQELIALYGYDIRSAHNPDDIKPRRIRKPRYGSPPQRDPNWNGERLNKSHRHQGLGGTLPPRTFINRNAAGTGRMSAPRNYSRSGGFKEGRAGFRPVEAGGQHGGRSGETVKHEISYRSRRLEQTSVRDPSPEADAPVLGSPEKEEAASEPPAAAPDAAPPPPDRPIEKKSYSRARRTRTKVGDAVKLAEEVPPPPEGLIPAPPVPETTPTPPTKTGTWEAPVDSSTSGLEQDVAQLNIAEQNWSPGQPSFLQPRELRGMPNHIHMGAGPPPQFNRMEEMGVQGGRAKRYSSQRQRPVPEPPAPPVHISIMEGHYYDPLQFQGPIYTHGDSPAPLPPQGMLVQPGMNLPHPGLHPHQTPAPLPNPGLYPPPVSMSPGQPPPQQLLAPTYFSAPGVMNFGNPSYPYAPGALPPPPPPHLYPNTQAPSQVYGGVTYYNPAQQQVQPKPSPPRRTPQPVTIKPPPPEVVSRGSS
UniProt P61326: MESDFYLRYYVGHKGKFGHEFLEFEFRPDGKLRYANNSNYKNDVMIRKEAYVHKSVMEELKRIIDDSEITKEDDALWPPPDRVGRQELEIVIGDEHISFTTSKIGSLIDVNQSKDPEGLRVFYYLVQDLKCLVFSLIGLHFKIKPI
UniProt Q9HAU5: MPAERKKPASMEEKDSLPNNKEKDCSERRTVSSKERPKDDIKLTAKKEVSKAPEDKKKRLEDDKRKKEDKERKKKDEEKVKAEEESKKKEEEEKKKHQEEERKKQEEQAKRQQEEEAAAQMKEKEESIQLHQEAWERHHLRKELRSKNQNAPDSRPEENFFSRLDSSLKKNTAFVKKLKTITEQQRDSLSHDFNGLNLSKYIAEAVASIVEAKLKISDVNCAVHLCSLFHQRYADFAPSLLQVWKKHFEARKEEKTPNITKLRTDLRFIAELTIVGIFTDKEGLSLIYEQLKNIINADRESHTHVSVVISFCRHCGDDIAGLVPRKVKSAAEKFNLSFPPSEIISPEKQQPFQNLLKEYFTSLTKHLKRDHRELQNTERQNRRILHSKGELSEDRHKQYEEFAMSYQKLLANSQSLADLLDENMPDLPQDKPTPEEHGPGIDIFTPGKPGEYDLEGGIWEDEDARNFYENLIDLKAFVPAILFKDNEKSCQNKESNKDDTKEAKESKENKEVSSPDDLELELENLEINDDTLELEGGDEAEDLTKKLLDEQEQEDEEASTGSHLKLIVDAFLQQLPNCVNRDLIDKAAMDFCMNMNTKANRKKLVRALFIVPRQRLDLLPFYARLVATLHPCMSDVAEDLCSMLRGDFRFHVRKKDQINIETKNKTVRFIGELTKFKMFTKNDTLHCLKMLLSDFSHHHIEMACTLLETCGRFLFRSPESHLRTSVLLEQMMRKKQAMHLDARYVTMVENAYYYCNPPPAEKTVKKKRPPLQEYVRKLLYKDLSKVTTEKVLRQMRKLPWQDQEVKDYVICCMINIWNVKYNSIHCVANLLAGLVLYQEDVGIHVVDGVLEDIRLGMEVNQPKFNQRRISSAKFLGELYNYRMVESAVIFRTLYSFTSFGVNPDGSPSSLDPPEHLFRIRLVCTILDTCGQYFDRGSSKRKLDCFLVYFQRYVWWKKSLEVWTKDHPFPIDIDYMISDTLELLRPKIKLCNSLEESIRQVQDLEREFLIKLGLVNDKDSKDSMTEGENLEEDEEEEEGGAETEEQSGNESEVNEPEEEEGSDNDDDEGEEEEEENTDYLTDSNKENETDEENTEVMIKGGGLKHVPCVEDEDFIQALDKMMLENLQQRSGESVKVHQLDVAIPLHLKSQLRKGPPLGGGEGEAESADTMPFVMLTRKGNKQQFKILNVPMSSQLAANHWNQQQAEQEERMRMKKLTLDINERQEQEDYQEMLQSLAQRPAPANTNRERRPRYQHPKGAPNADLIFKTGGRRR

Key:
[1] = molecular target: eIF4AIII (human (endogenous in HEK-293)) (UniProt P38919); assay: co-IP; endogenous proteins; HEK-293 whole cell lysates (hypotonic freeze/thaw lysis, 150 mM NaCl); IP with antibodies against ICE1, UPF3B, eIF4AIII (monoclonal) or control IgG; no RNase; immunoblot
[2] = molecular target: ICE1 (interactor of little elongation complex ELL subunit 1) (human (endogenous in HEK-293)) (UniProt Q9Y2F5); assay: as above
[3] = molecular target: 3XFLAG-tagged full-length ICE1 (human) (UniProt Q9Y2F5); assay: co-IP; anti-FLAG IP from HEK-293 lysates transiently overexpressing 3XFLAG-tagged ICE1 constructs; endogenous preys; immunoblot
[4] = molecular target: T1, UPF3B (human (endogenous in HEK-293)) (UniProt Q9BZI7); assay: co-IP; endogenous proteins; HEK-293 whole cell lysates (hypotonic freeze/thaw lysis, 150 mM NaCl); IP with antibodies against ICE1, UPF3B, eIF4AIII (monoclonal) or control IgG; no RNase; immunoblot
T1 sequence: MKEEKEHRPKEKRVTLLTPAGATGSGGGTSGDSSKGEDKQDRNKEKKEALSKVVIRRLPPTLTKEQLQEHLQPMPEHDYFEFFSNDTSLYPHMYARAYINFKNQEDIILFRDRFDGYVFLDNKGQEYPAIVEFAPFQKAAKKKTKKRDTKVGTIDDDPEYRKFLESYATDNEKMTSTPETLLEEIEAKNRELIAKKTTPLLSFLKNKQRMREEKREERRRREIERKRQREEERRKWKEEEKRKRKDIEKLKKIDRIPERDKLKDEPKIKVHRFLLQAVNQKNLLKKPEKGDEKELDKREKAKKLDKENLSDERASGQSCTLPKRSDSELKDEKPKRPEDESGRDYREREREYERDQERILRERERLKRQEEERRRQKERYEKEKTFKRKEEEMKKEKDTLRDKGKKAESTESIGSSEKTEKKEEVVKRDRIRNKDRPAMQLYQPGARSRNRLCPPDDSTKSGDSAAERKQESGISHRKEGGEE

[5] = molecular target: T1, UPF3B (human (endogenous in HEK-293)); assay: co-IP; anti-UPF3B IP from HEK-293 lysates transiently overexpressing 3Xmyc-ICE1 MIF4G (a.a. 1921–2266); immunoblot
[6] = molecular target: CASC3 (human (endogenous in HEK-293)) (UniProt O15234); assay: co-IP; IP with CASC3 antibody or IgG from HEK-293 lysates of cells treated with non-targeting (siNT) or ICE1 (siICE1) siRNA; endogenous proteins; immunoblot
[7] = molecular target: T1, UPF3B (human (endogenous in HEK-293)); assay: co-IP; endogenous proteins; HEK-293 whole cell lysates (hypotonic freeze/thaw lysis, 150 mM NaCl); IP with antibodies against ICE1, UPF3B, eIF4AIII (monoclonal) or control IgG; no RNase; immunoblot; remark: listed apart in the source
[8] = molecular target: ICE1 (interactor of little elongation complex ELL subunit 1) (human (endogenous in HEK-293)) (UniProt Q9Y2F5); assay: as above; remark: listed apart in the source

Molecule: CASC3 (from UniProt O15234 1-703)
- binding [1]: binds
- binding [2]: binds
- binding [3]: binds

Molecule: ICE1 (interactor of little elongation complex ELL subunit 1) (from UniProt Q9Y2F5 1-2266)
- binding [4]: no binding

Molecule: MAGOH (from UniProt P61326 1-146)
- binding [2]: binds

Molecule: UPF2 (from UniProt Q9HAU5 1-1272)
- binding [4]: binds
- binding [2]: no binding
- binding [5]: binds

Molecule: eIF4AIII (from UniProt P38919 1-411)
- binding [6]: binds

B1: UPF1 (protein, UniProt Q92900 1-1129)
chain: MSVEAYGPSSQTLTFLDTEEAELLGADTQGSEFEFTDFTLPSQTQTPPGGPGGPGGGGAGGPGGAGAGAAAGQLDAQVGPEGILQNGAVDDSVAKTSQLLAELNFEEDEEDTYYTKDLPIHACSYCGIHDPACVVYCNTSKKWFCNGRGNTSGSHIVNHLVRAKCKEVTLHKDGPLGETVLECYNCGCRNVFLLGFIPAKADSVVVLLCRQPCASQSSLKDINWDSSQWQPLIQDRCFLSWLVKIPSEQEQLRARQITAQQINKLEELWKENPSATLEDLEKPGVDEEPQHVLLRYEDAYQYQNIFGPLVKLEADYDKKLKESQTQDNITVRWDLGLNKKRIAYFTLPKTDSGNEDLVIIWLRDMRLMQGDEICLRYKGDLAPLWKGIGHVIKVPDNYGDEIAIELRSSVGAPVEVTHNFQVDFVWKSTSFDRMQSALKTFAVDETSVSGYIYHKLLGHEVEDVIIKCQLPKRFTAQGLPDLNHSQVYAVKTVLQRPLSLIQGPPGTGKTVTSATIVYHLARQGNGPVLVCAPSNIAVDQLTEKIHQTGLKVVRLCAKSREAIDSPVSFLALHNQIRNMDSMPELQKLQQLKDETGELSSADEKRYRALKRTAERELLMNADVICCTCVGAGDPRLAKMQFRSILIDESTQATEPECMVPVVLGAKQLILVGDHCQLGPVVMCKKAAKAGLSQSLFERLVVLGIRPIRLQVQYRMHPALSAFPSNIFYEGSLQNGVTAADRVKKGFDFQWPQPDKPMFFYVTQGQEEIASSGTSYLNRTEAANVEKITTKLLKAGAKPDQIGIITPYEGQRSYLVQYMQFSGSLHTKLYQEVEIASVDAFQGREKDFIILSCVRANEHQGIGFLNDPRRLNVALTRARYGVIIVGNPKALSKQPLWNHLLNYYKEQKVLVEGPLNNLRESLMQFSKPRKLVNTINPGARFMTTAMYDAREAIIPGSVYDRSSQGRPSSMYFQTHDQIGMISAGPSHVAAMNIPIPFNLVMPPMPPPGYFGQANGPAAGRGTPKGKTGRGGRQKNRFGLPGPSQTNLPNSQASQDVASQPFSQGALTQGYISMSQPSQMSQPGLSQPELSQDSYLGDEFKSQIDVALSQDSTYQGERAYQHGGVTGLSQY
- binding [7]: binds
- binding [8]: no binding

B2: UPF3B (protein, UniProt Q9BZI7 1-483)
chain: T1 sequence
- binding [8]: no binding
